In the supplement of paper PMC6089552:
The campaign covered roughly 3,200 compounds. About 300 (9.4%) showed activity. Only a part is listed here, and it is no random draw.

Test system: A673/TR/shEF
Test: cell viability (LOESS-normalised, relative to median of negative controls) (log2 ratio); higher = more viable cells (less compound effect), active = hit call of the paper (over 3 MAD below the median)
Conditions: treatment time: 72 h
How it was run: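 A673/TR/shEF Ewing sarcoma cells (1,500 per well, 384-well plates) were grown with or without doxycycline to induce EWS-FLI1 shRNA knockdown, starting 24 h before compounds. Library compounds at two or more concentrations, with DMSO controls, were added for three days. Cell viability was read by CellTiter-Glo luminescence on an Envision reader, then LOESS-corrected per plate, divided by the median of negative controls and log2-transformed. Hits were wells at least three median absolute deviations from the median of all screened wells.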

[1] = 0.103 µM, library screen: screen3, EWS-FLI1 expression: high (no doxycycline)
[2] = 0.103 µM, library screen: screen3, EWS-FLI1 expression: low (doxycycline-induced shRNA knockdown)
[3] = 0.25 µM, library screen: screen1, EWS-FLI1 expression: high (no doxycycline)
[4] = 0.25 µM, library screen: screen1, EWS-FLI1 expression: low (doxycycline-induced shRNA knockdown)
[5] = 0.308 µM, library screen: screen3, EWS-FLI1 expression: high (no doxycycline)
[6] = 0.308 µM, library screen: screen3, EWS-FLI1 expression: low (doxycycline-induced shRNA knockdown)
[7] = 0.926 µM, library screen: screen3, EWS-FLI1 expression: high (no doxycycline)
[8] = 0.926 µM, library screen: screen3, EWS-FLI1 expression: low (doxycycline-induced shRNA knockdown)
[9] = 2.5 µM, library screen: screen1, EWS-FLI1 expression: high (no doxycycline)
[10] = 2.5 µM, library screen: screen1, EWS-FLI1 expression: low (doxycycline-induced shRNA knockdown)
[11] = 2.8 µM, library screen: screen3, EWS-FLI1 expression: high (no doxycycline)
[12] = 2.8 µM, library screen: screen3, EWS-FLI1 expression: low (doxycycline-induced shRNA knockdown)
[13] = 8.3 µM, library screen: screen3, EWS-FLI1 expression: high (no doxycycline)
[14] = 8.3 µM, library screen: screen3, EWS-FLI1 expression: low (doxycycline-induced shRNA knockdown)
[15] = 25 µM, library screen: screen3, EWS-FLI1 expression: high (no doxycycline)
[16] = 25 µM, library screen: screen3, EWS-FLI1 expression: low (doxycycline-induced shRNA knockdown)
[17] = 0.25 µM, library screen: screen2, EWS-FLI1 expression: high (no doxycycline)
[18] = 0.25 µM, library screen: screen2, EWS-FLI1 expression: low (doxycycline-induced shRNA knockdown)
[19] = 2.5 µM, library screen: screen2, EWS-FLI1 expression: high (no doxycycline)
[20] = 2.5 µM, library screen: screen2, EWS-FLI1 expression: low (doxycycline-induced shRNA knockdown)

Measured: cell viability (log2)

CCOC(=O)[C@H](CCc1ccccc1)N[C@@H](C)C(=O)N1CCC[C@H]1C(=O)O
inactive: [1] 0.0659 | [2] -0.00414 | [3] 0.12 | [4] 0.0778 | [5] 0.171 | [6] 0.0558 | [7] 0.232 | [8] 0.121 | [9] 0.152 | [10] 0.123 | [11] 0.127 | [12] 0.0972 | [13] 0.181 | [14] 0.0837 | [15] 0.159 | [16] 0.0989

Cn1nnnc1SCC1=C(C(=O)O)N2C(=O)[C@@H](NC(=O)[C@H](OC=O)c3ccccc3)[C@H]2SC1
inactive: [3] 0.149 | [4] 0.168 | [9] 0.117 | [10] 0.0898

CN(C)CCCO[C@@H]1[C@H]2OC(C)(C)O[C@H]2O[C@@H]1[C@H](O)CO
inactive: [3] 0.116 | [4] 0.193 | [17] 0.148 | [18] 0.0809 | [9] 0.166 | [10] 0.236 | [19] 0.0824 | [20] 0.185

C[C@]12CC[C@@H]3c4ccc(O)cc4CC[C@H]3[C@@H]1C[C@@H](O)[C@@H]2O
inactive: [3] 0.127 | [4] -0.0345 | [9] 0.182 | [10] 0.105

Cc1nc(N)sc1-c1ccnc(Nc2ccc(N3CCOCC3)cc2)n1
active: [11] -0.219 | [13] -0.377 | [15] -0.478 | [16] -0.719

CCOc1ccc(C(=O)c2ccc(O)c(O)c2O)cc1
inactive: [3] 0.12 | [4] 0.127 | [9] 0.232 | [10] 0.262

CCc1cccc2c3c([nH]c12)C(CC)(CC(=O)O)OCC3 (stereo not given)
inactive: [1] 0.0182 | [2] 0.14 | [3] 0.148 | [4] -0.0011 | [17] 0.149 | [18] 0.0812 | [5] 0.108 | [6] 0.0435 | [7] 0.0757 | [8] 0.0917 | [9] 0.117 | [10] 0.106 | [19] 0.0915 | [20] 0.0886 | [11] 0.147 | [12] 0.084 | [13] 0.0644 | [14] 0.0759 | [15] 0.0939 | [16] 0.131

Cc1noc(NS(=O)(=O)c2ccc(N)cc2)c1C
inactive: [1] 0.104 | [2] -0.00328 | [3] 0.0717 | [4] 0.133 | [5] 0.102 | [6] 0.0583 | [7] 0.114 | [8] 0.0666 | [9] 0.158 | [10] 0.22 | [11] 0.115 | [12] 0.0541 | [13] 0.0836 | [14] 0.0532 | [15] 0.11 | [16] 0.129

CO[C@H]1C=C[C@@]23c4cc5c(cc4CN(C[C@@H]2O)[C@H]3C1)OCO5
inactive: [3] 0.0568 | [4] 0.0269
active: [9] -0.415 | [10] -0.623

C=CC(=O)N1CCC[C@@H](n2nc(-c3ccc(Oc4ccccc4)cc3)c3c(N)ncnc32)C1
inactive: [1] -0.0901 | [2] 0.0229 | [5] -0.0466 | [6] 0.0297 | [7] 0.021 | [8] 0.0235 | [11] -0.0315 | [12] 0.0823 | [13] -0.0558 | [14] 0.16 | [15] -0.158 | [16] 0.0664

CC1=C(CC(=O)O)c2cc(F)ccc2/C1=C\c1ccc([S+](C)[O-])cc1 (stereo not given)
inactive: [1] 0.117 | [2] -0.015 | [3] 0.167 | [4] 0.1 | [17] 0.24 | [18] 0.124 | [5] 0.087 | [6] 0.0827 | [7] 0.19 | [8] 0.0733 | [9] 0.242 | [10] 0.194 | [19] 0.129 | [20] 0.114 | [11] 0.19 | [12] 0.0382 | [13] 0.0514 | [14] 0.0676 | [15] 0.151 | [16] 0.0677

COC(=O)[C@@H]1OC(=O)C2OC23[C@@]1(C)CCC1[C@@]2(C)CCC(=O)C(C)(C)C2C[C@@H](OC(C)=O)[C@]13C (stereo not given in full)
inactive: [3] 0.0302 | [4] 0.00682 | [9] 0.123 | [10] 0.0574

Cn1c([N+](=O)[O-])cnc1COC(N)=O
inactive: [3] 0.137 | [4] -0.0161 | [9] 0.0994 | [10] 0.189
